Experimental data taken from PubChem BioAssay AID485344 (National Center for Advancing Translational Sciences (NCATS), 2010).
Screen size: about 340,000 compounds; about 6,900 (2%) were called active. Rule as the data show it: active = inhibition above about 30%; inactive = below that, where a call was filed. The list shows a part of the results, in another mix than the full data. Entries without a call were filed so in the source.

Target: D(2) dopamine receptor (Homo sapiens) (UniProt P14416)
Test: HTS Assay for Allosteric Antagonists of the Human D2 Dopamine Receptor: Primary Screen for Antagonists; also: 0% is about no effect
Conditions: HEK293 TREx D2 cells, calcium flux, dopamine EC80; at 10 µM; stronger effect = higher value
Outline: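 Antagonism is scored as inhibition of an EC80 dopamine-evoked calcium signal in a force-coupled, tetracycline-inducible HEK293 T-REx D2 line, with compound present 180 s before agonist.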

Chain of UniProt P14416 (P14416 whole entry, looked up): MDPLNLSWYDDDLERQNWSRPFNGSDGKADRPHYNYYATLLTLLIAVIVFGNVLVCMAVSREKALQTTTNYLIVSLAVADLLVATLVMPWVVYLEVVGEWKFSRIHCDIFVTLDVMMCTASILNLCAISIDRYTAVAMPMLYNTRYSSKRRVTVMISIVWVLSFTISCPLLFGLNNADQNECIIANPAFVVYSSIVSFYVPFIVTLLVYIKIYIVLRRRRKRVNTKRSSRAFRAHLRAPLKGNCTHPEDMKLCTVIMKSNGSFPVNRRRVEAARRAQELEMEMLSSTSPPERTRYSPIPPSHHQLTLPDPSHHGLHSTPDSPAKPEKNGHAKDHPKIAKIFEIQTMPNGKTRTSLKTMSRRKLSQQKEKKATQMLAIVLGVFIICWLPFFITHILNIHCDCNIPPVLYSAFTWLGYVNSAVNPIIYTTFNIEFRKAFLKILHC

Compound	inhibition
CCc1ccc(NC(=O)CN2C(=O)c3ccccc3Sc3ccc(C(=O)N4CCCC4)cc32)cc1	14.8%
Clc1cccc(C2=NC(c3cccs3)=Nc3ccc(Br)cc3N2)c1	0.104%
COc1ccc(C(CNC(=O)C(C)(C)Oc2ccc(Cl)cc2)N2CCCC2)cc1 (centres undefined)	active: 97.3%
COc1ccc(CNC(=O)c2sc3nc4n(c(=O)c3c2C)CCCCC4)cc1	16.7%
Cc1nc(-c2ccc(S(=O)(=O)Nc3ccc(Cl)c(C(F)(F)F)c3)cc2)co1	11.2%
COc1ccc(CNC(=O)C(CC(C)C)N2Cc3ccccc3C2=O)cc1 (centres undefined)	-13.6%
CCN(CC)CCOC(=O)c1ccc(Nc2c3c(nc4ccccc24)CCC3)cc1	8.45%
Cc1ccc2nc(COc3cccc(NC(=O)c4ccccc4Cl)c3)cc(=O)n2c1	-22.8%
CC(C)CN(CCNC(=O)c1cc(-c2cccs2)nc2ccccc12)CC(C)C	6.91%
CCOc1ccccc1CNC(=O)c1cnc2sc(N(CC)CC)nn2c1=O	7.02%
CCOC(=O)c1cc(-c2ccccc2)n(CCCC(=O)Nc2ccccc2C)c1C	-13.1%
COc1ccc(-n2ccnc(NCc3ccccc3Cl)c2=O)cc1OC	4.77%
COc1ccc(C(=O)c2oc3ccccc3c2NC(=O)c2cccc(OC)c2)cc1	-1.56%
CCOc1cccc(CC(=O)N2CCc3c([nH]c4ccccc34)C2c2ccc(SC)cc2)c1OCC (centres undefined)	-5.36%
CCOc1ccc(NC(=O)Cn2nc(Cc3ccncc3)c3ccccc3c2=O)cc1	2.26%
CCCN(CCC)C(=O)c1nn(C)c2c1CSc1ccc(C)cc1-2	-12.5%
COc1cccc(CN2CCN(c3ncccn3)CC2)c1	active: 95%
CC(C)Cn1c(=O)c2ccccc2n2c(CCC(=O)Nc3ccc(F)cc3)nnc12	0.623%
COc1ccccc1/C=C/c1nc(C#N)c(NCC(C)C)o1	-14.4%
Cn1c(=O)c2c(c3ccccc31)OC(=O)CC2c1cccc(Cl)c1 (centres undefined)	-4.46%
Cc1ccc(-c2nc(CCNC(=O)C(=O)Nc3c(C)cccc3C)cs2)cc1	16.2%
CCOCCn1cnc2sc(C(=O)Nc3ccccc3C(=O)OC)c(C)c2c1=O	3.05%
Cc1ccc(OCCCCN2CCc3ccccc3C2)cc1	active: 73.4%
O=C(Cn1ccc2cc(S(=O)(=O)N3CCCCC3)ccc21)NCc1ccccc1Cl	-7.02%
CC(C)c1nnc(N2C(=O)C(O)=C(C(=O)c3cccs3)C2c2ccccc2)s1 (centres undefined)	active: 47.9%

Compound	inhibition
COc1ccc(C)cc1NC(=O)c1oc2ccc(S(=O)(=O)N3CCC4(CC3)OCCO4)cc2c1C	-14.2%
CCOC(=O)c1ccc(N2CCN(c3cc(C)ccc3C)CC2)c(NC(=O)Nc2ccc(Cl)cc2)c1	0.709%
Cc1ccc(NC(=S)N(CCN2CCCCC2)Cc2ccco2)cc1C	active: 50.8%
CCOc1ccc(C2C(C(=O)Nc3ccccc3C)=C(C)Nc3nnnn32)cc1 (centres undefined)	-8.25%
CC(=O)Nc1nnc2n1CCS2	4.05%
Cc1ccc(OCCCNCCO)c(Br)c1	active: 39.4%
CCn1c(CN2CCOCC2)nc2cc(NC(=O)c3cccc([N+](=O)[O-])c3)ccc21	-1.16%
Cn1c(=O)c2c(-c3ccccc3)n(CCCO)cc2n(C)c1=O	0.42%
CCCc1nnc(NC(=O)Nc2ccccc2Cl)s1	-26.5%
CCOc1ccc(OCC)c(NC(=O)C2CCCN(S(=O)(=O)c3cc(Br)cc4c3N(C(=O)CC)CC4)C2)c1 (centres undefined)	-4.81%
Cc1nc2nc(C)c(NS(=O)(=O)c3ccc(CC(C)C)cc3)c(=O)n2[nH]1	5.28%
Cc1nn(C(=O)c2c(F)cccc2F)c(C)c1S(=O)(=O)N1CCCCCC1	-9.25%
COc1cc(NC(=O)N2CCSc3ccccc32)cc(OC)c1OC	-1.68%
CC(C)Oc1ccc(CNC(=O)c2ccc3c(c2)nc2n3CCOC2)cc1	-11.1%
CCN(c1ccccc1C)S(=O)(=O)c1nnc(NC(=O)c2ccccc2C)s1	15.8%
Cc1ccccc1CN1CCN(CCCc2ccccc2)C(CCO)C1 (centres undefined)	active: 38.3%
COc1ccccc1NC(=O)Nc1cc(F)ccc1F	active: 32%
COc1ccc(NC(=O)Cc2c(C(=O)O)[nH]c3ccccc23)cc1OC	-6.91%
COc1ccc(CNC(=O)Cc2coc3ccc(C)cc23)cc1	-1.59%
Cc1ccc(NC(=O)c2oc3ccc(S(=O)(=O)N4CCOCC4)cc3c2C)c(C)c1	2.03%
O=C(CCS(=O)(=O)c1nc(-c2ccc3c(c2)OCO3)cc(C(F)(F)F)n1)Nc1ccc(Br)cc1	0.0929%
O=C1CC(c2c(F)cccc2Cl)c2c(ccc3ccccc23)N1 (centres undefined)	-8.12%
COc1cc(C2c3c(oc4ccc(F)cc4c3=O)C(=O)N2Cc2ccc3c(c2)OCO3)ccc1O (centres undefined)	-7.32%
COc1ccc(C(=O)Nc2ccc3nc4c(c(Nc5ccccc5OC)c3c2)CCCC4)c(OC)c1	26.4%
